Several values for one entry are separate records, joined by “and”; a condition that tells them apart may be missing. Equal entries are not always repeated. This continues a long series; more values of the same kind are listed elsewhere.
CCCCn1cc[n+](C)c1.F[B-](F)(F)F
Conditions	viscosity
293.15 K, 101 kPa	127.6 mPa·s and 127.6 mPa·s and 136.9 mPa·s
299.15 K, 101 kPa	101 mPa·s and 103.5 mPa·s and 101.9 mPa·s
301.15 K, 101 kPa	91.07 mPa·s and 93.24 mPa·s and 92 mPa·s
302.15 K, 101 kPa	86.71 mPa·s and 88.7 mPa·s and 87.52 mPa·s
303.15 K, 100 kPa	85.38 mPa·s
304.15 K, 101 kPa	78.91 mPa·s and 80.52 mPa·s and 79.57 mPa·s
305.15 K, 101 kPa	75.15 mPa·s and 76.8 mPa·s and 75.85 mPa·s
307.15 K, 101 kPa	68.48 mPa·s and 69.89 mPa·s and 69.07 mPa·s
308.15 K, 100 kPa	61.5 mPa·s
313.15 K, 100 kPa	53.84 mPa·s
318.15 K, 101 kPa	38.72 mPa·s and 38.72 mPa·s and 37.79 mPa·s
318.15 K, 101.33 kPa	44 mPa·s
323.15 K, 100 kPa	36.27 mPa·s
323.15 K, 101 kPa	31.08 mPa·s and 38.04 mPa·s
323.15 K, 101.33 kPa	31.6 mPa·s
